Experimental data published in PubChem BioAssay AID463173 (ICCB-Longwood Screening Facility, Harvard Medical School, 2010).
Screen size: about 52,000 compounds; about 1,700 (3.3%) were called active. No stated cut-off is given here; in the data, active means survival mostly below about 52% (no sharp cut-off); inactive means mostly above about 56%. The list shows a part of the results.

Test system: Wild type
Assay: growth inhibition of S. aureus wild type versus tarO mutant, primary screen, teichoic acid synthesis inhibitors, RN4220, OD600 (AID 463173)
Settings: S. aureus RN4220 wild type/DeltatarO growth, OD600, 18 h, hits give low values, screened at 18.75 µg/mL (by protocol)

| SMILES | survival |
| --- | --- |
| O=C(c1cnn2c1NC(c1ccc(Br)cc1)CC2C(F)(F)F)N1CCCC1 (configuration not stated) | inactive: 95% |
| CCCCNC(=O)c1cnn2c(C)c(Cc3c(F)cccc3Cl)c(C)nc12 | inactive: 131% |
| Cc1ccccc1NC(=O)CN1C(=O)C(C)(C)c2ccccc21 | inactive: 59% |
| CCCCn1c(SCC(=O)N2c3ccccc3Sc3ccccc32)nc2c1c(=O)n(C)c(=O)n2C | inactive: 99% |
| Cc1cccc(C)c1NC(=O)Cn1c(=O)n(CCC(=O)NCc2ccccc2Cl)c(=O)c2sccc21 | inactive: 94% |
| COc1ccc(OC)c(CCNC(=O)c2c(C)oc3ncn(C)c(=O)c23)c1 | inactive: 64% |
| COc1cc(NC(=O)Cc2noc3ccccc23)cc(OC)c1OC | inactive: 97% |
| O=C(CN1C(=O)COc2ccc(S(=O)(=O)N3CCCCCC3)cc21)N1CCN(c2ccc(Cl)cc2)CC1 | inactive: 136% |
| CCOC(=O)c1ccc(NC(=O)CC(C)n2nc(C)cc2C)cc1 (configuration not stated) | inactive: 146% |
| Cc1ccc(C)c(Nc2nn3c(=O)c4ccc(C(=O)NCc5ccccc5)cc4nc3s2)c1 | inactive: 66% |
| COc1ccc(CNC(=O)c2cc(-c3ccc(Br)s3)nc3ccccc23)cc1 | inactive: 84% |
| Cc1cccc(-n2ncc3c(NNC(=O)c4ccccc4Cl)ncnc32)c1 | inactive: 75% |
| COc1ccc(-c2ccc(=O)n(CC(=O)Nc3cc(OC)ccc3OC)n2)cc1 | inactive: 59% |
| CCCc1oc(C(=O)O)cc1CN1CCOCC1 | inactive: 117% |
| O=c1[nH]c(C2CCCN(S(=O)(=O)c3ccccc3)C2)nc2c1nnn2Cc1ccccc1Br (configuration not stated) | inactive: 101% |
| CCOC(=O)c1cccc(NC(=O)Nc2c(C)n(C)n(-c3ccccc3)c2=O)c1 | inactive: 78% |
| CCCCN(CC)CCCNC(=O)c1cn(C)c(=O)c2c1c1ccccc1n2C | inactive: 133% |
| Cc1cccc(C)c1NC(=O)Cn1cc(C(=O)C2CC2)c2ccccc21 | inactive: 68% |
| Cc1nn(CCC(=O)Nc2cccc(C#N)c2)c(C)c1S(=O)(=O)N1CCCCC1 | inactive: 85% |

| SMILES | survival |
| --- | --- |
| COc1cccc(C(=O)Nc2nnc(S(=O)(=O)N3CCCc4ccccc43)s2)c1 | inactive: 20% |
| Cc1ccc(C)c(CN2C(=O)c3ccccc3S(=O)c3ccc(C(=O)N4CCCCC4)cc32)c1 (configuration not stated) | inactive: 103% |
| COc1ccc(OC)c(S(=O)(=O)NCCS(=O)(=O)N2CCN(c3ccccc3F)CC2)c1 | inactive: 76% |
| CCS(=O)(=O)NCCc1csc2nc(-c3ccc(OC)cc3)nn12 | inactive: 60% |
| CCc1cnc2c(c1SCc1cc(OC)cc(OC)c1)c(=O)n(C)c(=O)n2C | inactive: 83% |
| CSc1ncc(C(=O)NCc2cccc(C)c2)c(-c2ccccc2)n1 | inactive: 65% |
| COc1ccccc1/C=C/C(=O)Nc1nc2n(n1)C(c1ccc(F)cc1)C=C(c1ccccc1)N2 (configuration not stated) | inactive: 74% |
| Cc1ccc(OCCn2c(C3CC(=O)N(Cc4ccc(F)cc4)C3)nc3ccccc32)c(C)c1 (configuration not stated) | active: -15% |
| O=C(Nc1ccccn1)C(=NO)C(=O)Nc1ccccn1 | inactive: 111% |
| O=S(=O)(NCC(c1ccccc1)N1CCc2ccccc21)c1ccc(Cl)cc1 (configuration not stated) | inactive: 81% |
| C=CCc1ccccc1OCCSc1nc(-c2ccccc2F)nc2cc(=O)[nH]n12 | inactive: 80% |
| Cc1cccc(N2CCN(c3nc4ccccc4c4nnc(C)n34)CC2)c1C | inactive: 98% |
| COc1ccc(CNC(=O)Cn2cccc2C(=O)c2ccccc2C)cc1 | inactive: 86% |
| CCN(CC)C(=O)c1sc2c(c1C)c(=O)n(-c1ccc(OC)cc1OC)c(=O)n2CC(=O)Nc1ccccc1 | inactive: 89% |
| COc1ccc(C(=O)c2cn(Cc3ccccc3OC)c3cc4c(cc3c2=O)OCO4)cc1 | inactive: 79% |
| Cc1cccc(NC(=O)c2c(NC(=O)c3ccccc3)sc3c2CCC3)c1 | inactive: 80% |
| Cc1cc(C)cc(-n2ccnc2SCC(=O)Nc2ccccc2F)c1 | inactive: 83% |
| COc1ccc(OCC(=O)NCc2ccc3c(c2)CCN3C(=O)c2cccc(C)c2)cc1 | inactive: 72% |
| CC(=O)N1CCCC1c1nc2ccccc2n1Cc1cccc(C)c1 (configuration not stated) | inactive: 85% |

| SMILES | survival |
| --- | --- |
| CSc1ccc(CCNC(=O)c2ccc(-n3c(C)cc4c3CCC(C)C4)cc2)cc1 (configuration not stated) | inactive: 152% |
| COc1ccc2c(c1)c(CC(=O)Nc1c(C)cccc1C)c(C)n2C(=O)c1ccc(Cl)cc1 | inactive: 80% |
| Cc1cc(C)cc(NC(=O)CCn2cnc3ccccc3c2=O)c1 | inactive: 90% |
| CCOc1ccccc1NC(=O)Cn1c(=O)n(-c2ccc(C)cc2)c(=O)c2c1cnn2C | inactive: 70% |
| CCc1cccc(NC(=O)CC(c2ccc(OC)cc2)N2Cc3ccccc3C2=O)c1 (configuration not stated) | inactive: 73% |
| Cc1cc(C(=O)Nc2ccccc2C(=O)O)c(C)o1 | inactive: 83% |
| CC(C)c1ccc(C2NC(=O)c3c(sc4c3CCN(C)C4)N2)cc1 (configuration not stated) | inactive: 71% |
| CCOc1ccc(N(CC(=O)OC)S(=O)(=O)c2ccc3c(c2)n(C)c(=O)c(=O)n3C)cc1 | inactive: 64% |
| CCC(C)NC(=O)Cn1c(=O)n(-c2ccc(Cl)cc2)c(=O)c2c3c(sc21)CCCC3 (configuration not stated) | inactive: 89% |
| COc1ccc(NC(=O)c2ccc(NC(=O)CCS(=O)(=O)c3cccs3)cc2)cc1Cl | inactive: 81% |
| Cc1ccc(-n2nnnc2SCC(=O)NCCc2ccccc2)cc1C | inactive: 60% |
| CCCCC(=O)OC1=CN(Cc2ccccc2)S(=O)(=O)c2ccccc21 | inactive: 114% |
| CC(=O)Nc1ccc(NCc2cccs2)cc1 | inactive: 98% |
| Clc1cccc(-c2cc3nc4c(c(N5CCCCC5)n3n2)CCCC4)c1 | inactive: 105% |
| Cc1ccc(C)c(N2CCN(C(=O)c3c(C)oc4nc(C)nc(N5CCOCC5)c34)CC2)c1 | inactive: 82% |
| CCc1nnc(NC(=O)CSc2nccn2Cc2ccc(Cl)cc2)s1 | inactive: 77% |
| CCCc1nnc(SCc2cc(=O)c3c(C)cc(C)cc3[nH]2)n1C | inactive: 66% |
| C=CCC(CC=C)(CNC(=O)C(=O)Nc1ccc(Br)cc1)c1ccc(OC)c(OC)c1 | inactive: 90% |
| Cc1ccc(OCCCn2c(-c3ccc(Cl)cc3)nc3ccccc3c2=O)cc1C | inactive: 65% |
